No constants are given. Whether binding was seen depends on the method and setting. Binding seen in cells or lysates may run through a third protein. Some binding calls cover weakened binding; strength is not graded here. For some of these results: Sequences can lack the tags named with a protein. Blank lines part the entries; values can stand above or below the binder they belong to.
Legend:
[1] = target: T1, MBP-tagged Hook2 N427 I150A (human) (UniProt Q96ED9); assay: pull-down; MBP-tagged Hook2 N427 (WT or mutants) on amylose beads incubated with whole-cell lysate of HEK293T cells (asynchronous, or harvested in cytokinesis for MKLP1), 4°C, 3 h, 20 mM Hepes pH 7.4, 350 mM NaCl, 1 mM DTT, 2 mM MgCl2, 0.1% Triton X-100, 2 mg/ml BSA; immunoblot; only the target purified
T1 sequence: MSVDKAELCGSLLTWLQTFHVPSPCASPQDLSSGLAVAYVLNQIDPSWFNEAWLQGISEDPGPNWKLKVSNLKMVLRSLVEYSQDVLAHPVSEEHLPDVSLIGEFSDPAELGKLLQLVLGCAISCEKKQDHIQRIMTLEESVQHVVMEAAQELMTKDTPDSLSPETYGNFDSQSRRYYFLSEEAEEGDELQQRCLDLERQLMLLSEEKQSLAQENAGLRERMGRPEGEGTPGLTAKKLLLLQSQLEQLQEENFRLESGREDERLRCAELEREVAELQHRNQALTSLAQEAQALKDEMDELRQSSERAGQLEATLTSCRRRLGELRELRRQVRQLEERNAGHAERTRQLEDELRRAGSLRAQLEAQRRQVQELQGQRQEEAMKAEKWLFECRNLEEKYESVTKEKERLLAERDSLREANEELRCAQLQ

Protein sequences, listed by entry. Tags and fused reporters are not part of them.
UniProt Q14203: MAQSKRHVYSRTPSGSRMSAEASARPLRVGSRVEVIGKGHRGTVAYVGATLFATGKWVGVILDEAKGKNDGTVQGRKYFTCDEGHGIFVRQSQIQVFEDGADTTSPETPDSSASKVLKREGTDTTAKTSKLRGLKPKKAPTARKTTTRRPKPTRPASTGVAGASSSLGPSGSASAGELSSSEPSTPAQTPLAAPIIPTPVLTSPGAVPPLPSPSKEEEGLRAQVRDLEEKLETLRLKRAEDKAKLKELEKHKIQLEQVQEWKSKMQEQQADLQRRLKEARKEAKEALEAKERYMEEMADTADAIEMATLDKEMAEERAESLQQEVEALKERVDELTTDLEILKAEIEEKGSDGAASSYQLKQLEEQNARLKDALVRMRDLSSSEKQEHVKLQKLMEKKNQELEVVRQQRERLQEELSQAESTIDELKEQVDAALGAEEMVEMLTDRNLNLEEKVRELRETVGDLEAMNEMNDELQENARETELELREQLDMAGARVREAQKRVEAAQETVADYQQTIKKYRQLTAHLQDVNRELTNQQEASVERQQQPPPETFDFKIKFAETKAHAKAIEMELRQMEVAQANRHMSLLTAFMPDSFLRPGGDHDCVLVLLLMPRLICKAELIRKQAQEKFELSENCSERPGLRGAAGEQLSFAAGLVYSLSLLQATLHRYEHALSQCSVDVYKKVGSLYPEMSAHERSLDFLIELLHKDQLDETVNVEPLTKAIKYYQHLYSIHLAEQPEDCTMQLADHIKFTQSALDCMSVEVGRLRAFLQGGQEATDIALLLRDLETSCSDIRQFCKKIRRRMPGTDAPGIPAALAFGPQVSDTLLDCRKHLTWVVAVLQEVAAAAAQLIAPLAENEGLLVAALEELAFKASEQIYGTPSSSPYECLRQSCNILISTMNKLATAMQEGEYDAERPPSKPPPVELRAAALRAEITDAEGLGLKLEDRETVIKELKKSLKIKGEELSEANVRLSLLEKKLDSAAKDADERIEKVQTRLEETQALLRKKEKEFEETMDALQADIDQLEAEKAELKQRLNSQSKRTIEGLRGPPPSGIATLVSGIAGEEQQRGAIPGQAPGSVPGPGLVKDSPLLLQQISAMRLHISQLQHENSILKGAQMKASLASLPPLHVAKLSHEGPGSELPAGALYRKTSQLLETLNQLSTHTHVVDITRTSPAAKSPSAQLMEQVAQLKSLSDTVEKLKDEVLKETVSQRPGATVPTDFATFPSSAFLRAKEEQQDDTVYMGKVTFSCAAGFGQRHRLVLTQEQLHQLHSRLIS
UniProt P61163: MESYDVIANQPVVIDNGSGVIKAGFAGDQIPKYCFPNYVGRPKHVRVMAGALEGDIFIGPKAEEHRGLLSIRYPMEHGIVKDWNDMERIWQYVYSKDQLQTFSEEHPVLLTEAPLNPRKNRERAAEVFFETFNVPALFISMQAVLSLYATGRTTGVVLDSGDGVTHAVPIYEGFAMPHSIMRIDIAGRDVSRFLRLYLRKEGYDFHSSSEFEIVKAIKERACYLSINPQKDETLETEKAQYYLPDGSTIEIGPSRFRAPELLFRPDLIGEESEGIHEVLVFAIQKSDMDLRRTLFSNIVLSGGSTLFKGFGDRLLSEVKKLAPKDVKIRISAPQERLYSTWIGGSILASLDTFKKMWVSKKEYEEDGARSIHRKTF
UniProt Q13561: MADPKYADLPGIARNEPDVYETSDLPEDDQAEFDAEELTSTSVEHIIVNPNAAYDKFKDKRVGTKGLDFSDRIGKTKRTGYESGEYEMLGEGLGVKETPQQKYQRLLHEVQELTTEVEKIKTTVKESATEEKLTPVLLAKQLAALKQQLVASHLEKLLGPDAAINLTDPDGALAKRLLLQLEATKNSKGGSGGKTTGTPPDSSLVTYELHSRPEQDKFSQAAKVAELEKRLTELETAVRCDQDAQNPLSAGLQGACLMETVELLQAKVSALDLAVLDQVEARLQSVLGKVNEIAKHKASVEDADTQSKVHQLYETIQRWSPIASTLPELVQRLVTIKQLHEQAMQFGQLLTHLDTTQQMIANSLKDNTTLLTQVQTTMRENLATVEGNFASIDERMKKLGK

[2] = target: T2, MBP-tagged Hook2 N427 Q143A (human) (UniProt Q96ED9); assay: as above
T2 sequence: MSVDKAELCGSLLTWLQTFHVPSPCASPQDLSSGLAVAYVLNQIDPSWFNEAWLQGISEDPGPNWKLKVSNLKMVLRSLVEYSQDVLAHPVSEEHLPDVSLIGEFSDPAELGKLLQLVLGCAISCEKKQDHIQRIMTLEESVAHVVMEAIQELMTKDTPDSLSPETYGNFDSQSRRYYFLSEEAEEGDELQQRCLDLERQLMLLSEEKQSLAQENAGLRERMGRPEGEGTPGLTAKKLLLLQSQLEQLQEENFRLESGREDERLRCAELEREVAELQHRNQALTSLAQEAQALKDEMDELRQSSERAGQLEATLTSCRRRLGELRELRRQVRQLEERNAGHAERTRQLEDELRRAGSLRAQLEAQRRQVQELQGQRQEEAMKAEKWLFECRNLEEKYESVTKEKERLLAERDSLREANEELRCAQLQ

[3] = target: p150^glued (human (endogenous in HEK293T)) (UniProt Q14203); assay: co-IP; endogenous proteins; HEK293T lysates in TAP lysis buffer (20 mM Tris-HCl pH 7.4, 150 mM NaCl, 0.5% NP-40) with antibody on protein-A/G beads, 3 h, 4°C; cells asynchronous or synchronized (G2, prometaphase, metaphase/anaphase, cytokinesis), with control or other siRNAs or Hook2 plasmids; immunoblot
[4] = target: Arp1 (human (endogenous in HEK293T)) (UniProt P61163); assay: as above
[5] = target: p50/dynamitin (human (endogenous in HEK293T)) (UniProt Q13561); assay: as above
[6] = target: p150^glued (human (endogenous in HEK293T)) (UniProt Q14203); assay: co-IP; lysates of HEK293T cells transfected with HA-tagged Hook2 (WT, Q143A, I150A; also siRNA-resistant forms in Hook2 siRNA-treated cells); IP with anti-DIC or anti-p150^glued, immunoblot anti-HA

binding [1]: no binding
binding [2]: no binding
B1: mitotic kinesin-like protein 1 (MKLP1) (protein, UniProt Q02241 1-960)
chain: MKSARAKTPRKPTVKKGSQTNLKDPVGVYCRVRPLGFPDQECCIEVINNTTVQLHTPEGYRLNRNGDYKETQYSFKQVFGTHTTQKELFDVVANPLVNDLIHGKNGLLFTYGVTGSGKTHTMTGSPGEGGLLPRCLDMIFNSIGSFQAKRYVFKSNDRNSMDIQCEVDALLERQKREAMPNPKTSSSKRQVDPEFADMITVQEFCKAEEVDEDSVYGVFVSYIEIYNNYIYDLLEEVPFDPIKPKPPQSKLLREDKNHNMYVAGCTEVEVKSTEEAFEVFWRGQKKRRIANTHLNRESSRSHSVFNIKLVQAPLDADGDNVLQEKEQITISQLSLVDLAGSERTNRTRAEGNRLREAGNINQSLMTLRTCMDVLRENQMYGTNKMVPYRDSKLTHLFKNYFDGEGKVRMIVCVNPKAEDYEENLQVMRFAEVTQEVEVARPVDKAICGLTPGRRYRNQPRGPVGNEPLVTDVVLQSFPPLPSCEILDINDEQTLPRLIEALEKRHNLRQMMIDEFNKQSNAFKALLQEFDNAVLSKENHMQGKLNEKEKMISGQKLEIERLEKKNKTLEYKIEILEKTTTIYEEDKRNLQQELETQNQKLQRQFSDKRRLEARLQGMVTETTMKWEKECERRVAAKQLEMQNKLWVKDEKLKQLKAIVTEPKTEKPERPSRERDREKVTQRSVSPSPVPLSSNYIAQISNGQQLMSQPQLHRRSNSCSSISVASCISEWEQKIPTYNTPLKVTSIARRRQQEPGQSKTCIVSDRRRGMYWTEGREVVPTFRNEIEIEEDHCGRLLFQPDQNAPPIRLRHRRSRSAGDRWVDHKPASNMQTETVMQPHVPHAITVSVANEKALAKCEKYMLTHQELASDGEIETKLIKGDIYKTRGGGQSVQFTDIETLKQESPNGSRKRRSSTVAPAQPDGAESEWTDVETRCSVAVEMRAGSQLGPGYQHHAQPKRKKP

binding [3]: binds
binding [4]: binds
binding [5]: binds
B2: Hook2 (endogenous) (protein, UniProt Q96ED9 1-719)
chain: MSVDKAELCGSLLTWLQTFHVPSPCASPQDLSSGLAVAYVLNQIDPSWFNEAWLQGISEDPGPNWKLKVSNLKMVLRSLVEYSQDVLAHPVSEEHLPDVSLIGEFSDPAELGKLLQLVLGCAISCEKKQDHIQRIMTLEESVQHVVMEAIQELMTKDTPDSLSPETYGNFDSQSRRYYFLSEEAEEGDELQQRCLDLERQLMLLSEEKQSLAQENAGLRERMGRPEGEGTPGLTAKKLLLLQSQLEQLQEENFRLESGREDERLRCAELEREVAELQHRNQALTSLAQEAQALKDEMDELRQSSERAGQLEATLTSCRRRLGELRELRRQVRQLEERNAGHAERTRQLEDELRRAGSLRAQLEAQRRQVQELQGQRQEEAMKAEKWLFECRNLEEKYESVTKEKERLLAERDSLREANEELRCAQLQPRGLTQADPSLDPTSTPVDNLAAEILPAELRETLLRLQLENKRLCRQEAADRERQEELQRHLEDANRARHGLETQHRLNQQQLSELRAQVEDLQKALQEQGGKTEDAISILLKRKLEEHLQKLHEADLELQRKREYIEELEPPTDSSTARRIEELQHNLQKKDADLRAMEERYRRYVDKARMVMQTMEPKQRPAAGAPPELHSLRTQLRERDVRIRHLEMDFEKSRSQREQEEKLLISAWYNMGMALQQRAGEERAPAHAQSFLAQQRLATNSRRGPLGRLASLNLRPTDKH

binding [6]: binds
B3: HA-tagged Hook2 Q143A (protein, UniProt Q96ED9 1-719)
chain: MSVDKAELCGSLLTWLQTFHVPSPCASPQDLSSGLAVAYVLNQIDPSWFNEAWLQGISEDPGPNWKLKVSNLKMVLRSLVEYSQDVLAHPVSEEHLPDVSLIGEFSDPAELGKLLQLVLGCAISCEKKQDHIQRIMTLEESVAHVVMEAIQELMTKDTPDSLSPETYGNFDSQSRRYYFLSEEAEEGDELQQRCLDLERQLMLLSEEKQSLAQENAGLRERMGRPEGEGTPGLTAKKLLLLQSQLEQLQEENFRLESGREDERLRCAELEREVAELQHRNQALTSLAQEAQALKDEMDELRQSSERAGQLEATLTSCRRRLGELRELRRQVRQLEERNAGHAERTRQLEDELRRAGSLRAQLEAQRRQVQELQGQRQEEAMKAEKWLFECRNLEEKYESVTKEKERLLAERDSLREANEELRCAQLQPRGLTQADPSLDPTSTPVDNLAAEILPAELRETLLRLQLENKRLCRQEAADRERQEELQRHLEDANRARHGLETQHRLNQQQLSELRAQVEDLQKALQEQGGKTEDAISILLKRKLEEHLQKLHEADLELQRKREYIEELEPPTDSSTARRIEELQHNLQKKDADLRAMEERYRRYVDKARMVMQTMEPKQRPAAGAPPELHSLRTQLRERDVRIRHLEMDFEKSRSQREQEEKLLISAWYNMGMALQQRAGEERAPAHAQSFLAQQRLATNSRRGPLGRLASLNLRPTDKH

binding [6]: binds
B4: HA-tagged Hook2 I150A (protein, UniProt Q96ED9 1-719)
chain: MSVDKAELCGSLLTWLQTFHVPSPCASPQDLSSGLAVAYVLNQIDPSWFNEAWLQGISEDPGPNWKLKVSNLKMVLRSLVEYSQDVLAHPVSEEHLPDVSLIGEFSDPAELGKLLQLVLGCAISCEKKQDHIQRIMTLEESVQHVVMEAAQELMTKDTPDSLSPETYGNFDSQSRRYYFLSEEAEEGDELQQRCLDLERQLMLLSEEKQSLAQENAGLRERMGRPEGEGTPGLTAKKLLLLQSQLEQLQEENFRLESGREDERLRCAELEREVAELQHRNQALTSLAQEAQALKDEMDELRQSSERAGQLEATLTSCRRRLGELRELRRQVRQLEERNAGHAERTRQLEDELRRAGSLRAQLEAQRRQVQELQGQRQEEAMKAEKWLFECRNLEEKYESVTKEKERLLAERDSLREANEELRCAQLQPRGLTQADPSLDPTSTPVDNLAAEILPAELRETLLRLQLENKRLCRQEAADRERQEELQRHLEDANRARHGLETQHRLNQQQLSELRAQVEDLQKALQEQGGKTEDAISILLKRKLEEHLQKLHEADLELQRKREYIEELEPPTDSSTARRIEELQHNLQKKDADLRAMEERYRRYVDKARMVMQTMEPKQRPAAGAPPELHSLRTQLRERDVRIRHLEMDFEKSRSQREQEEKLLISAWYNMGMALQQRAGEERAPAHAQSFLAQQRLATNSRRGPLGRLASLNLRPTDKH

Source: PMC6400558 (2019)
